Measured values from article PMC3139598.
Substitutions are numbered along the chain they refer to. No constants are given. Whether binding was seen depends on the method and setting. In cells and extracts the contact can be indirect. Some binding calls cover weakened binding; strength is not graded here. Where a sequence is shown, tags or fusion partners need not be part of it.

Tests used:
Assay in all cases: co-IP; N2a cells co-transfected with pcDNA3-APP695 and FLAG-X11L proteins, FLAG-X11 or FLAG-X11L2; lysis in HBS-T (10 mM HEPES pH 7.6, 150 mM NaCl, 5 mM EDTA, 0.5% Triton X-100); immunoprecipitation with anti-FLAG antibody at 4°C for 2 h, protein G-Sepharose; blot with anti-APP/C and anti-FLAG
[1] = target: T1, FLAG-X11 (human X11) (human) (UniProt Q02410)
T1 sequence: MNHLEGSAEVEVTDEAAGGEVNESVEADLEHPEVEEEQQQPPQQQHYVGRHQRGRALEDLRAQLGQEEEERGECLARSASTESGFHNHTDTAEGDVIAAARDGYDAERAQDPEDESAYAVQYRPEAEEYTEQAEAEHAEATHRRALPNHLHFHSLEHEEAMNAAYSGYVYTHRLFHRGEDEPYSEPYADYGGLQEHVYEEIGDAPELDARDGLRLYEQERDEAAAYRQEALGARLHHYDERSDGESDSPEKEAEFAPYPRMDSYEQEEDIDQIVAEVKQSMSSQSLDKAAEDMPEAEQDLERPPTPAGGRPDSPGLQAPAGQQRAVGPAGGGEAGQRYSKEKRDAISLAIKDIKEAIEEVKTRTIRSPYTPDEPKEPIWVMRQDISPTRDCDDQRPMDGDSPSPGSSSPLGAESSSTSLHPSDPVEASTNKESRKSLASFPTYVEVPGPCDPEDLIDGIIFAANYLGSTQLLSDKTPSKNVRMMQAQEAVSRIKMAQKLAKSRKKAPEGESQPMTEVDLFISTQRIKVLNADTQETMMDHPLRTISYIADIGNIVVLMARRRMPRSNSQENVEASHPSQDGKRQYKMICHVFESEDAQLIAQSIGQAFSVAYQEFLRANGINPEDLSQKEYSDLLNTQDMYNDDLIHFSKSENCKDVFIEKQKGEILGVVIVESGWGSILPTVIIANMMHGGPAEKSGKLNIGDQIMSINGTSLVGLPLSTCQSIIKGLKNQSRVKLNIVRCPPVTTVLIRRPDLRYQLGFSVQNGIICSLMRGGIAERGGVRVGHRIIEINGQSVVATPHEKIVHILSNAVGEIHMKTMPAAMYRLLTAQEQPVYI

[2] = target: T2, FLAG-X11L (human X11-like, entire) (human) (UniProt Q99767)
T2 sequence: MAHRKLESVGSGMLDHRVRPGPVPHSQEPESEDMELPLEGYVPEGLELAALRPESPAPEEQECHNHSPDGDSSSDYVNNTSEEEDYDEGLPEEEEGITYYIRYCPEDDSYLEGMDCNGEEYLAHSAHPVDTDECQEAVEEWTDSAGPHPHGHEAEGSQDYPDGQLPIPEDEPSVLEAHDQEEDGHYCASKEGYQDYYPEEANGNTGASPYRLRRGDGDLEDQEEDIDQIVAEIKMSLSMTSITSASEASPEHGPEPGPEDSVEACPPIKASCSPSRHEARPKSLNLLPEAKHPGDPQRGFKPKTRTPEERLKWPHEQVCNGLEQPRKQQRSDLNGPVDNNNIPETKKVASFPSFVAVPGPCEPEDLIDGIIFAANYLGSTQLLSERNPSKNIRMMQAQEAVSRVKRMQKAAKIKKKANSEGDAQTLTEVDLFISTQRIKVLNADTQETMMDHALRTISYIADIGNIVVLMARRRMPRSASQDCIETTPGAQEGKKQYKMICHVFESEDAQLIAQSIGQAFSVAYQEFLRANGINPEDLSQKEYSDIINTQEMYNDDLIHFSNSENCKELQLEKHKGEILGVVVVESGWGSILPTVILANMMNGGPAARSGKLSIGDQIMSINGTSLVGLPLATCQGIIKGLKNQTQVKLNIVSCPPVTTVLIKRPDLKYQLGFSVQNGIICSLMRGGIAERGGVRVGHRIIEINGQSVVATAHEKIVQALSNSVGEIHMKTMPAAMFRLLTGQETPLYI

[3] = target: T3, FLAG-X11L F520V (Phe to Val mutation at amino acid 520) (human) (UniProt Q99767)
T3 sequence: T2 sequence with F520V

[4] = target: T4, FLAG-X11L-C (carboxyl-terminal amino acids 556 to 749) (human) (UniProt Q99767)
T4 sequence: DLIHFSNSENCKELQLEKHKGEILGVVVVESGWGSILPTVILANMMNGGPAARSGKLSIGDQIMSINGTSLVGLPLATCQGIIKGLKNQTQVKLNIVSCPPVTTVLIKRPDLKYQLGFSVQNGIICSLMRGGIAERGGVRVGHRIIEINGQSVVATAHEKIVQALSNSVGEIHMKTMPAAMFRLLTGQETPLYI

[5] = target: T5, FLAG-X11L-PTB (amino acids 369 to 555) (human) (UniProt Q99767)
T5 sequence: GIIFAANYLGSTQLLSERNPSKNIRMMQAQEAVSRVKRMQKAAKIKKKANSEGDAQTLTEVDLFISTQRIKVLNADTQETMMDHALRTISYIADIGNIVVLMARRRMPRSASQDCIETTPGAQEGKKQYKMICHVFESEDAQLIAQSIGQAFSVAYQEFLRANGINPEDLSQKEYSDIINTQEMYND

[6] = target: T6, FLAG-X11L-ΔPTB (deletion of amino acids 369 to 555) (human) (UniProt Q99767)
T6 sequence: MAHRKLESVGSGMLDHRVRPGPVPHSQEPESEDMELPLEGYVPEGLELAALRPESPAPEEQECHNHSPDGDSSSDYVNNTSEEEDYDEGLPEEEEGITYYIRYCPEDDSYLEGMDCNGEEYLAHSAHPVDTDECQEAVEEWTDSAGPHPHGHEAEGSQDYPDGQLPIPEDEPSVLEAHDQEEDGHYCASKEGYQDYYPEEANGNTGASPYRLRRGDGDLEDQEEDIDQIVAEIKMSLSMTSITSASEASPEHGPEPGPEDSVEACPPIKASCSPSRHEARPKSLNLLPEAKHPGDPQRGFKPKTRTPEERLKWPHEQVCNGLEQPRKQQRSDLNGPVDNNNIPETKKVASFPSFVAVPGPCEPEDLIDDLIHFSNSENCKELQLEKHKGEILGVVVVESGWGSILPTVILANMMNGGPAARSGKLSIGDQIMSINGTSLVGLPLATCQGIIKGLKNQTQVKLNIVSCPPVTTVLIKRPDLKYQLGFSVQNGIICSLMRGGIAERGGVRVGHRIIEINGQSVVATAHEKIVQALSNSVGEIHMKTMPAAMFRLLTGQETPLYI

[7] = target: T7, FLAG-X11L2 (human X11L2) (human) (UniProt O96018)
T7 sequence: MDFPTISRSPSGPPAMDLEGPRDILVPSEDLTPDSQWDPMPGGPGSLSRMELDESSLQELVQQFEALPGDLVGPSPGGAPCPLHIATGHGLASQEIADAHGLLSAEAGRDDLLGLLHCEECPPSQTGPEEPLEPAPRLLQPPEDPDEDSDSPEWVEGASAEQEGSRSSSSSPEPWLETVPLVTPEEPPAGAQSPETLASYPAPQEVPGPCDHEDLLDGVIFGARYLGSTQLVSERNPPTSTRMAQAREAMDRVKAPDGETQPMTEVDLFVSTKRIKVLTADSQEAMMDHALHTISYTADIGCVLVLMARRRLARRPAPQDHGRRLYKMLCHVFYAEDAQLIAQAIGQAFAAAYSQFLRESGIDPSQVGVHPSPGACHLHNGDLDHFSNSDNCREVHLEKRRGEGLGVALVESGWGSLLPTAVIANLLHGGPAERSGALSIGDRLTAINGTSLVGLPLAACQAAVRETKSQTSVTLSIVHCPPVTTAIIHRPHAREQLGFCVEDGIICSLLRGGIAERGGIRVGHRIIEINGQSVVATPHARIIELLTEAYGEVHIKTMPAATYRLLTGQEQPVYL

binding [1]: binds
binding [2]: binds
binding [3]: no binding
binding [4]: no binding
binding [5]: binds
binding [6]: no binding
binding [7]: binds
Substance: amyloid β-protein precursor APP695 (untagged, from pcDNA3-APP695) (from UniProt P05067-4 18-695)
